PubChem BioAssay AID720709 (National Center for Advancing Translational Sciences (NCATS), 2013)
About 520 (0.14%) of roughly 360,000 compounds were called active. Inconclusive results, whose numbers are uncertain, are shown with a selection of clear calls. The call rests on the fitted dose curve; in most records, active means well fitted inhibition curve with a large enough effect; inconclusive means small, poorly fitted or top-dose-only effect; inactive means no such curve, though single readings can be large or run the other way. No potency is given beside an inconclusive call; the fits are too rough.

The compounds below were run against Rap guanine nucleotide exchange factor 3 (Homo sapiens) (UniProt O95398) (assay: qHTS for Antagonist of cAMP-regulated guanine nucleotide exchange factor 3 (EPAC1): primary screen). Settings: EPAC1 GEF assay, Rap1b-BODIPY-GDP exchange fluorescence; activity change, negative = inhibition: at 115 µM (top of the series).
Further: nearly all actives have a fitted effect of over 50% in size.
Potency means the concentration at half of the fitted maximal effect; tags describe the fitted curve by direction and shape.
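Wherever activity change, negative = inhibition is given: plate controls were vehicle for no effect and positive control for full effect.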

UniProt O95398, sequence (O95398 whole entry, looked up): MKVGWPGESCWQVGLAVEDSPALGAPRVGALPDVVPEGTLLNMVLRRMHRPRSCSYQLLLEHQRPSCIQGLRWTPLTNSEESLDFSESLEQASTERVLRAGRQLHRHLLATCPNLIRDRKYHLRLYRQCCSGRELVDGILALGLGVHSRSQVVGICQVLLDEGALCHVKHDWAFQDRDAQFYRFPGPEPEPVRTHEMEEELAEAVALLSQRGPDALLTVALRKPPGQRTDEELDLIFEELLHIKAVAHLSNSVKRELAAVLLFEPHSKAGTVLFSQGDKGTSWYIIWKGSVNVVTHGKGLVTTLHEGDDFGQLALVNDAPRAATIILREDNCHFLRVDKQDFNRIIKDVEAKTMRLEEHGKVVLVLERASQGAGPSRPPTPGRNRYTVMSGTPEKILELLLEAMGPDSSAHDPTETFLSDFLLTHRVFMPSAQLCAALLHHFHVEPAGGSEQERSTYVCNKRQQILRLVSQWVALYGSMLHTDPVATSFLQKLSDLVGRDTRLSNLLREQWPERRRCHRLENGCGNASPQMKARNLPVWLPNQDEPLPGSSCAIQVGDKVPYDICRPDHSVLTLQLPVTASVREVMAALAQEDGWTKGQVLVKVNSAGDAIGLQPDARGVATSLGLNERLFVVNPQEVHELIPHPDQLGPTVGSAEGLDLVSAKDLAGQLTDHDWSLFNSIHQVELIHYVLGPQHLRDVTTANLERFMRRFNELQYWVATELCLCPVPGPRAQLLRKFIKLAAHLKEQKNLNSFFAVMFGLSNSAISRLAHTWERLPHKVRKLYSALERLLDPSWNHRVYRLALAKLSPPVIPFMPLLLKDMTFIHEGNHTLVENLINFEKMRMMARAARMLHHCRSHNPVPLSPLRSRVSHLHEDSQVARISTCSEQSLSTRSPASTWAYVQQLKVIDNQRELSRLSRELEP

Row | Structure (SMILES) | Potency | activity change, negative = inhibition
1 | CCOc1ccc(S(=O)(=O)N2CCCC(C(=O)NCc3cccnc3)C2)cc1Cl (stereo unspecified) | inconclusive [inhibitor, single point] | 
2 | CCC(CC)C(=O)N(C)c1c(C)nc2c(OCc3ccc(Cl)cc3)cccn12 | inconclusive [inhibitor, single point] | 
3 | O=C(Nc1nc(-c2ccc(-c3ccccc3)cc2)cs1)C1=COCCO1 | inactive | 
4 | C#CCOCCOCCOCCNc1nc(N2CCN(C(=O)CCCCCCCCCCNC(=O)Cn3cc(CCCCCN)nn3)CC2)nc(N2CCN(C(=O)CCCCCCCCCCNC(=O)[C@H]([C@@H](C)CC)n3cc(CCCCN=C(N)N)nn3)CC2)n1 | inconclusive [inhibitor, single point] | 
5 | CNc1nc(Sc2ccccc2)cc(C(F)(F)F)n1 | inconclusive [inhibitor, single point] | 
6 | Nn1c(SCC(=O)NCC2CCCO2)nnc1-c1ccco1 (stereo unspecified) | inconclusive [inhibitor, single point] | 
7 | Nc1cccc2cc(S(=O)(=O)O)ccc12 | inconclusive [inhibitor, partial curve] | 
8 | CCCn1nc(NC(=O)c2ccccn2)c2cc3cc(C)ccc3nc21 | inactive | 
9 | Cc1ccc(-c2nnc(N3CCC(C)CC3)c3ccccc23)cc1 | inconclusive [inhibitor, single point] | 
10 | COc1cc(/C=C2\SC(=S)N(CCCCC(=O)O)C2=O)ccc1OS(=O)(=O)c1ccc(C)cc1 | inconclusive [inhibitor, partial curve] | 
11 | Cc1noc(C)c1CSCC(=O)Nc1nc2c(F)cc(F)cc2s1 | inconclusive [inhibitor, single point] | 
12 | COc1ccc(NC(=O)[C@H](C)NC(=O)C2CCN(S(=O)(=O)c3ccc(C)cc3)CC2)cc1 | inactive | 
13 | CCS(=O)(=O)C1=NN2C(=N)/C(=C\c3ccc(OCCOc4cccc(OC)c4)c(OC)c3)C(=O)N=C2S1 | inconclusive [inhibitor, partial curve] | 
14 | Cc1cccc(NC(=O)CNC(=O)c2sc3ccccc3c2Cl)n1 | inconclusive [inhibitor, partial curve] | 
15 | O=C(NCCc1ccc(Cl)cc1)C1CCN(S(=O)(=O)c2ccc(Br)s2)CC1 | inconclusive [inhibitor, single point] | 
16 | O=C(Nc1nnc(SCc2ccc(F)cc2)s1)c1ccc2ncsc2c1 | inconclusive [inhibitor, single point] | 
17 | CCN(CC(=O)Nc1ccc(NC(C)=O)cc1)C(=O)CN1C(=O)NC(C)(c2ccc3ccccc3c2)C1=O (stereo unspecified) | inconclusive [inhibitor, partial curve] | 
18 | Cc1cccc2sc(N(CCCN(C)C)C(=O)c3ccco3)nc12 | inconclusive [inhibitor, single point] | 
19 | CCCNC(=O)C(CC)NC(=O)c1cccc([N+](=O)[O-])c1 (stereo unspecified) | inconclusive [inhibitor, single point] | 
20 | C#CCOCCOCCOCCNc1nc(N2CCN(C(=O)[C@H]([C@@H](C)CC)n3cc([C@@H](N)Cc4ccc(O)cc4)nn3)CC2)nc(N2CCN(C(=O)[C@H](Cc3ccc(O)cc3)n3cc([C@@H](N)C(C)CC)nn3)CC2)n1 (stereo partly specified) | inconclusive [inhibitor, single point] | 
21 | O=C(Cn1ncn2cccc2c1=O)N1CCCCC1 | inconclusive [inhibitor, single point] | 

Row | Structure (SMILES) | Potency | activity change, negative = inhibition
22 | COc1ccc(/C=N/NC(=O)c2cccc(NC(=O)c3ccc(Cl)cc3)c2)c(OC)c1 | inconclusive [inhibitor, partial curve] | 
23 | COc1ccc(-c2nn(-c3ccccc3)cc2CN2CCCO2)c(F)c1 | inconclusive [inhibitor, partial curve] | 
24 | Cc1ccc(C)c(OCC(=O)O/N=C(\N)c2cccnc2)c1 | inconclusive [inhibitor, single point] | 
25 | Cn1cnnc1Sc1ccc(C(=O)OCC(=O)Nc2cc(Cl)cc(Cl)c2)cc1[N+](=O)[O-] | inconclusive [inhibitor, partial curve, poor fit] | 
26 | O=C(N/N=C/c1ccc(O)cc1)c1cccc(N/N=C/c2ccc(O)cc2)c1 | inconclusive [inhibitor, partial curve, poor fit] | 
27 | CC1OC(CCc2cccc(Cl)c2)Cc2[nH]c(=S)[nH]c(=O)c21 (stereo unspecified) | inactive | 
28 | C=CCNC(=S)NCc1ccc(CNC(=S)NCC=C)cc1 | inconclusive [inhibitor, full curve, poor fit] | 
29 | Cc1cc(CNC(=O)c2cccc3c2C(=O)c2ccc(-c4ccc(F)cc4OCc4ccccc4)cc2S3(=O)=O)c(C(F)(F)F)o1 | inconclusive [inhibitor, partial curve] | 
30 | O=C(NCCS(=O)(=O)NC1CCCC1)c1ccccc1 | inactive | 
31 | Cc1ccccc1-c1cccc([C@@H]2C[C@H]3[C@H](CON3C)CN2C)c1 | inconclusive [inhibitor, partial curve] | 
32 | NC(=O)C1CCN(C(=O)c2ccc([N+](=O)[O-])cc2NC(=O)c2cccs2)CC1 |  | inconclusive: -30.5% [inhibitor]
33 | O=C(Nc1cccc(Oc2ccc(C(=O)O)c(C(=O)O)c2)c1)c1ccc(-c2ccccc2)cc1 | inconclusive [inhibitor, single point] | 
34 | CC(CC(=O)Nc1cccc(Cl)c1)c1ccccc1 (stereo unspecified) | inconclusive [inhibitor, partial curve, poor fit] | 
35 | CN(C)S(=O)(=O)c1ccc(C(=O)NC2CCCc3ccccc32)cc1 (stereo unspecified) | inconclusive [inhibitor, partial curve] | 
36 | CCOc1ccccc1N1CCN(C(=O)c2csc(C)c2CC)CC1 | inconclusive [inhibitor, partial curve] | 
37 | O=C1C=C(O)c2cccc(O)c2C1=O | inactive | 
38 | O=C(CSc1nc(O)cc(=O)n1-c1ccccc1)Nc1ccc(Br)cn1 | inconclusive [inhibitor, partial curve, poor fit] | 
39 | Nc1cc(Cl)nc(N/N=C/c2ccccc2[N+](=O)[O-])n1 | inactive | 
40 | COc1ccc(O)c(/C=N/NC(=O)c2cccc(N3CCCC3=O)c2)c1 | inconclusive [inhibitor, partial curve] | 
41 | Cc1ccc2oc(=O)c3cnn(CC(=O)NC4CCC(C)CC4)c3c2c1 (stereo unspecified) | inconclusive [inhibitor, single point] | 
42 | Nc1cccnc1S(=O)(=O)c1cccc(C(F)(F)F)c1 | inconclusive [inhibitor, full curve, poor fit] | 

Row | Structure (SMILES) | Potency | activity change, negative = inhibition
43 | CC(C)(C)c1cc(OC(=O)C2CCCC2)ccc1O | inconclusive [inhibitor, partial curve] | 
44 | CCc1ccc(CN2CCCC(CNS(=O)(=O)c3ccc(OC)cc3)C2)cc1 (stereo unspecified) | inactive | 
45 | O=C(O)c1ccc(-n2c(O)c(C=C3N=c4ccccc4=N3)sc2=S)cc1 | inconclusive [inhibitor, partial curve] | 
46 | COc1ccc(C)cc1S(=O)(=O)N1CCC(C(=O)NC2CCCC2)CC1 | inconclusive [inhibitor, partial curve, poor fit] | 
47 | Cc1ccc(/C=C/C(=O)Nc2ccc([N+](=O)[O-])c(NC(=O)/C=C/c3ccc(C)o3)c2)o1 | inconclusive [inhibitor, partial curve] | 
48 | Cc1ccc(CN(C(=O)COc2ccc(Br)cc2)C2CCS(=O)(=O)C2)o1 (stereo unspecified) | inconclusive [inhibitor, partial curve, poor fit] | 
49 | CCOC(=O)c1ccc(NC(=S)N2CCCC(C(=O)OCC)C2)cc1 (stereo unspecified) | inconclusive [inhibitor, partial curve] | 
50 | COc1ccc(NC(=O)CN(C)C(=O)CCC2CCCC2)cc1 | inconclusive [inhibitor, single point] | 
51 | CCS(=O)(=O)N1CCN(S(=O)(=O)c2ccc3c(c2)OCCO3)CC1 | inactive | 
52 | O=C(NC1CCCCC1)N1CCNCC1 | inactive | 
53 | O=[N+]([O-])c1cccc(C=NNc2ccc3ccccc3n2)c1O | inconclusive [inhibitor, full curve, poor fit] | 
54 | CCOC(=O)Cc1c(Sc2ccccc2)c2ccccc2n1C | inconclusive [inhibitor, partial curve, poor fit] | 
55 | CCn1nc(C)c(C(=O)Nc2cc(Oc3ccc(Cl)cc3)cc([N+](=O)[O-])c2)c1C | inconclusive [inhibitor, single point] | 
56 | Cc1ccccc1NC(=S)N(Cc1cccs1)C1CCCC1 | inconclusive [inhibitor, partial curve, poor fit] | 
57 | NC(=S)N=Nc1c(O)[nH]c2c(Br)cc(Br)cc12 | inactive | 
58 | Cc1ccc([C@H]2C(C(=O)O)=CC[C@@H](c3ccc(C(C)C)cc3)N2S(=O)(=O)c2ccc(C)cc2)cc1 | inconclusive [inhibitor, partial curve] | 
59 | CCOc1cc(CNc2ccccc2)cc(Br)c1OCC(=O)NC(C)(C)C | inconclusive [inhibitor, partial curve, poor fit] | 
60 | CCOc1ccccc1N1CCN(C(=O)c2cc(-c3cc(OC)ccc3OC)nc3ccccc23)CC1 | inconclusive [inhibitor, single point] | 
61 | Cc1cc(Cl)n2c(nc3cc(F)c(F)cc32)c1C#N |  | inconclusive: -35.1% [inhibitor]
